According to PubChem BioAssay AID485344 (National Center for Advancing Translational Sciences (NCATS), 2010):
Hit rate of the full screen: of about 340,000 compounds, about 6,900 (2%) were called active. No stated cut-off is given here; in the data, active means inhibition above about 30%; inactive means below that, where a call was filed. The entries are a selection whose mix differs from that of the whole data set. Entries without a call were filed so in the source.

The molecules below were run against D(2) dopamine receptor (Homo sapiens) (UniProt P14416) (assay: HTS Assay for Allosteric Antagonists of the Human D2 Dopamine Receptor: Primary Screen for Antagonists). Details: HEK293 TREx D2 cells, calcium flux, dopamine EC80; at 10 µM; stronger effect = higher value.
How it was run: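 Antagonism is scored as inhibition of an EC80 dopamine-evoked calcium signal in a force-coupled, tetracycline-inducible HEK293 T-REx D2 line, with compound present 180 s before agonist.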
Further: 0% is about no effect.

Chain of UniProt P14416 (P14416 whole entry, looked up): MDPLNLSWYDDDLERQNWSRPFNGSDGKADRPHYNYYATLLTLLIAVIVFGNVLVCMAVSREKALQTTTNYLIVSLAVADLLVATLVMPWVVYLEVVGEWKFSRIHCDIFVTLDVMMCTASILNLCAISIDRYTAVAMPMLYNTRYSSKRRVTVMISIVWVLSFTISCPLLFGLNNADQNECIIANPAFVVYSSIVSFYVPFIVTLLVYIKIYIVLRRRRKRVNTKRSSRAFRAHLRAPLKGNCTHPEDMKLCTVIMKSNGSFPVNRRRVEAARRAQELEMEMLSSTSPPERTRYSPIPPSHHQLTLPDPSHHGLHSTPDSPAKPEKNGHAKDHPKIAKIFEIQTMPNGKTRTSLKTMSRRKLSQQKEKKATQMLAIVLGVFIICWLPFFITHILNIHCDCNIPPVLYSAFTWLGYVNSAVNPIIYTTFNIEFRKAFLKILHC

| SMILES | inhibition |
| --- | --- |
| CCc1ccc(CN(Cc2cn[nH]c2-c2ccc(OC)cc2)C(=O)Nc2cc(Cl)ccc2OC)cc1 | 0.155% |
| CCOC(=O)c1c(NC(=O)c2ccc(S(=O)(=O)N(CC(C)C)CC(C)C)cc2)sc2c1CCN(C(=O)OCC)C2 | -7.42% |
| CCC(=O)N(CCC(c1ccccc1)c1ccc2c(c1)OCO2)Cc1ccc(OC(C)C)cc1 (centres undefined) | 6.34% |
| COc1ccc(NC(=O)CSc2nnc(-c3nonc3NC(C)=O)n2-c2ccccc2)cc1 | 4.27% |
| COc1ccc(Cl)cc1NC(=O)c1sc2nc3n(c(=O)c2c1C)CCC3 | 13.1% |
| CCCN(C(=O)Cn1cnc2onc(-c3ccc(F)cc3)c2c1=O)c1cccc(Cl)c1 | -2.39% |
| Cc1cc(C)n(-c2nc3ccccc3nc2Nc2cccc(C)c2C)n1 | -12.8% |
| CCOc1ccc(CCNS(=O)(=O)c2cc(Br)cc3c2N(C(C)=O)CC3)cc1OCC | -8.2% |
| CN(CCC(=O)Nc1ccc(Cl)cc1)Cc1ccccc1 | active: 45.2% |
| CCC(Sc1nc2ccccc2c(=O)n1CCc1ccc(OC)c(OC)c1)C(=O)N(CC)CC (centres undefined) | 21.5% |
| O=C(Nc1ccc(OC(F)(F)F)cc1)c1cc2ccccn2n1 | -3.39% |
| O=c1nc2n(-c3ccccc3F)c3ccccc3cc-2c(=O)[nH]1 | 0.145% |
| COc1cc(OC)c(Nc2nc3ccc(C(=O)c4ccccc4)cc3n3c(C)nnc23)cc1Cl | -1.02% |
| CC(C)CCN1CCN(Cc2cccc(C(F)(F)F)c2)CC1CCO (centres undefined) | active: 76.4% |
| CCCCn1cc2c(c1-c1ccc(Cl)cc1)c(=O)n(C)c(=O)n2C | 25.4% |
| Cc1cc(C)cc(NS(=O)(=O)c2cc3c(cc2C)NC(=O)CO3)c1 | 22.1% |
| CS(=O)(=O)N(CC(O)Cn1c2ccccc2c2ccccc21)c1cccc2ccccc12 (centres undefined) | active: 31.2% |
| Clc1ccc(-c2noc3ncnc(NCCc4ccccc4)c23)cc1 | -24.9% |
| CCc1ccc(NC(=O)C2CCN(c3nn4c(=O)cc(C)nc4s3)CC2)cc1 | 13.7% |
| O=C(Nc1ccc2c(c1)CCCN2C(=O)c1cccs1)c1ccccc1Cl | 12% |
| COc1ccc(Cl)cc1NC(=O)c1nn(-c2ccc(C)cc2)c(=O)n(C)c1=O | -11.4% |
| CCOC(=O)c1c(C)[nH]c(C)c1S(=O)(=O)N1CCCC(C(=O)N2CCN(c3cccc(C)c3C)CC2)C1 (centres undefined) | 3.35% |
| Cc1cccc(CNC(=O)CS(=O)(=O)c2cccc3nsnc23)c1 | 20.1% |
| COc1cc(NC(=O)Cn2cnc(S(=O)(=O)N3CCCC3)c2)cc(OC)c1OC | 1.25% |

| SMILES | inhibition |
| --- | --- |
| CN1/C(=C/C=N/NC(=O)c2ccc([N+](=O)[O-])cc2)C(C)(C)c2ccccc21 | active: 36.7% |
| COCCNC(=O)c1cnc2sc(N3CCC(C)CC3)nn2c1=O | -8.89% |
| CCOC(=O)C1CCN(C(c2cccc(F)c2)c2c(O)cc(C)n(CCOC)c2=O)CC1 (centres undefined) | 6.41% |
| CCN(C(=O)c1cnc2ccc(C)cn2c1=O)c1ccccc1 | 5.35% |
| CCOC(=O)c1c(C)c(-c2ccccc2)n(CC(=O)NC2CCCCC2)c1C | 5.13% |
| O=C(Cn1c(=O)nc(-c2ccccc2)c2cc(Cl)ccc21)N1CCN(c2ccc(F)cc2)CC1 | 9.71% |
| Cc1cccc(-c2nnc(C3CCN(S(=O)(=O)c4cccc(Cl)c4)CC3)o2)c1 | 7.65% |
| CCOc1cc2[nH]c(=O)n(Cc3ccc(C(=O)N4CCN(c5cccc(Cl)c5)CC4)cc3)c(=O)c2cc1OCC | 15.7% |
| COc1cc(C2NC(=O)c3c(sc4c3CCN(C)C4)N2)cc(OC)c1OC (centres undefined) | 20.5% |
| CC(=O)CSc1nnc2[nH]c(=O)cc(N)n12 | 2.81% |
| Cn1nc(C(=O)Nc2ccc(F)c(Cl)c2)c2c1-c1ccccc1S(=O)(=O)C2 | 2.6% |
| CCc1ccc(CNC(=O)C2CCN(c3nn4cc(-c5ccc(F)cc5)nc4s3)CC2)cc1 | -3.09% |
| Cc1nn(-c2ccccc2)c(C)c1NC(=O)COC(=O)[C@@H](NC(=O)c1ccccc1)C(C)C | active: 35.9% |
| CCOC(=O)c1c(C)[nH]c(C)c1S(=O)(=O)N(C)CC(=O)Nc1ccc(C)cc1C | 1.81% |
| Cc1ccccc1NC(=O)Cc1nc(COC(=O)CNS(=O)(=O)c2cccc(Br)c2)cs1 | active: 34.8% |
| Cc1cc(C)c2oc(-c3cccc(NC(=O)COc4ccc([N+](=O)[O-])cc4)c3)nc2c1 | 15.2% |
| Cc1ccc(NC(=O)Cn2c(=O)n(CC3CCCO3)c(=O)c3ccccc32)cc1 (centres undefined) | -3.21% |
| Cc1ccc(Cl)cc1N1CCN(C(=O)c2ccc(CS(=O)(=O)c3ccccc3C)o2)CC1 | -18.7% |
| COc1cc(C2CC(=O)Oc3c2c(=O)n(C)c2ccccc32)ccc1O (centres undefined) | 13.9% |
| COc1ccc(C(=O)NC2(C(F)(F)F)C(=O)Nc3c2c(=O)[nH]c(=O)n3CCc2ccc(OC)c(OC)c2)cc1 (centres undefined) | -3.23% |
| CCOC(=O)C1CCN(S(=O)(=O)c2ccc3c(c2)N(C)C(=O)CC(=O)N3C)CC1 | -18.5% |
| COc1ccc(-c2cc(C(C)=O)c(C)n2CCC(=O)Nc2cc(Cl)ccc2C)cc1 | -17.8% |
| Clc1cccc(CN2CCN(c3nc4nonc4nc3NC3CC3)CC2)c1 | active: 37.7% |
| CCCCN(C(=O)C1CC(=O)N(c2ccc(C)cc2)C1)c1c(N)n(CCC)c(=O)[nH]c1=O (centres undefined) | active: 37.9% |

| SMILES | inhibition |
| --- | --- |
| Cc1ccccc1CN1CCC(CNC(=O)c2c(C)oc3ncnc(N4CCCCC4)c23)CC1 | -7.42% |
| CCOc1ccc(CCNC(=O)C2=C(C)C(=O)OC23CCCCC3)cc1 | 1.1% |
| CCC(Sc1nc(-c2ccccc2F)nc2c1Cc1c(CO)cnc(C)c1O2)C(=O)Nc1cc(C)ccc1C (centres undefined) | 18.9% |
| O=C(CCn1c(=O)c2cccn2c2cccnc21)NCc1ccc(F)cc1 | 8.73% |
| Fc1ccc(-c2noc3ncnc(NCc4ccc(Cl)cc4)c23)cc1 | -10.7% |
| CN(Cc1ccccc1)C(=O)c1ccc2c(c1)N(Cc1ccccc1Cl)C(=O)c1ccccc1S2 | -9.49% |
| CCc1ccccc1NC(=O)c1cnc(N2CCCCC2)c2ccccc12 | 23.6% |
| Cc1cc(=O)n(CC(=O)N2CCN(c3ccccc3F)CC2)c2c1c(C)nn2C | -1.79% |
| COc1cc(C(=O)NCC(c2cccs2)S(=O)(=O)c2cccs2)cc(OC)c1OC (centres undefined) | 1.43% |
| COc1ccc(-c2c3c(=O)n(C)c(=O)n(C)c3c3n2-c2ccccc2NC3c2ccco2)cc1 (centres undefined) | -9.6% |
| CCOc1ccc(CCNC(=O)Cn2nc(CC)n3c(cc4ccccc43)c2=O)cc1 | -6.8% |
| CCOC(=O)c1[nH]c(C)c(CCC(=O)Nc2cc(C)ccc2OC)c1C | -14.8% |
| CCn1cc([N+](=O)[O-])c(C(=O)Nc2ccc3c(c2)OCCO3)n1 | active: 69.2% |
| Cc1ccc(Cl)cc1N1CCN(C(=O)c2ccc3c(c2)N(Cc2ccc(F)cc2)CCS3)CC1 | 6.19% |
| CCOc1cc(CNC(=O)c2ccc3c(c2)NC(=O)C2CCCCN32)cc(OCC)c1OCC (centres undefined) | 19.3% |
| CCOc1ccccc1OCCCn1c(-c2ccc(Cl)cc2)nc2ccccc2c1=O | -8.36% |
| Cc1cn2c(=O)cc(COC(=O)c3ccc(NC(=O)COc4ccccc4F)cc3)nc2s1 | -20% |
| CCOC(=O)C1CCN(C(=O)c2ccc(-n3ccc4ccccc43)s2)CC1 | 1.83% |
| COc1ccc(Cn2ccn(Cc3cccc(OC)c3)c(=O)c2=O)cc1 | -13.1% |
| Cc1ccccc1C1CC(=O)Nc2ccc3ccccc3c21 (centres undefined) | 0.835% |
| Cc1ccc(C(=O)c2cn(CC(=O)Nc3ccc(C)cc3Cl)c3nc(C)ccc3c2=O)cc1 | -10% |
| Cc1cccc(NC(=O)N2CC(=O)Nc3sc4c(c3C2c2ccccc2)CCCC4)c1C (centres undefined) | 3.04% |
| CC(=O)c1cccc(NC(=O)C2CCN(S(=O)(=O)c3ccc4c(c3)oc(=O)n4C)CC2)c1 | 18.6% |
| CCOC(=O)c1cccc(NC(=O)CCn2c(-c3ccc(F)cc3)cc(C(=O)OCC)c2C)c1 | -13.3% |

| SMILES | inhibition |
| --- | --- |
| COc1cc(OC)cc(C(=O)NCC(=O)Nc2ccc(OC)c(Cl)c2)c1 | active: 36.8% |
| O=C(CSCc1ccccc1Cl)N1CCN(c2ccc(Cl)cc2)CC1 | 4.65% |
| COc1ccc(NC(=O)c2ccc3c(c2)OCO3)cc1Cl | active: 39.3% |
| COc1c(C)cccc1C(=O)Nc1cccc2ccc(C)nc12 | -1.15% |
| COC(=O)c1ccccc1NC(=O)NC1CCN(Cc2ccccc2)CC1 | active: 63.9% |
| CCCS(=O)(=O)N1CC(=O)N(c2ccc(Cl)cc2C)C(C)(C(=O)NC2CCCC2)C1 (centres undefined) | -9.97% |
| COc1cc2nc(NC(=O)c3ccc(S(=O)(=O)N4CCOCC4)cc3)sc2cc1OC | -5.77% |
| COc1ccc(NC(=O)CSC2=Nc3ccccc3C3=NC(CCC(=O)NC4CCCCC4)C(=O)N23)cc1 (centres undefined) | 21.2% |
| Cc1cc(C)nc(NC(C)(C)C(=O)O)n1 | active: 32.5% |
| CCc1nn(Cc2ccc(Cl)cc2)c(=O)c2cc3cc(C)ccc3n12 | 7.36% |
| Cc1cccc(NS(=O)(=O)c2ccc3c(c2)C(C)(C)C(=O)N3C)c1 | -18.1% |
| O=C(CN(c1ccccc1)S(=O)(=O)c1ccc(Cl)cc1)Nc1cccnc1 | active: 33.8% |
| Cc1ccc(NC(=O)c2sc3nc4c(cc3c2N)CN(Cc2ccccc2)CC4)cc1 | 15% |
| Cc1oc2ncn(C)c(=O)c2c1C(=O)N1CCN(c2ccccc2F)CC1 | -13.7% |
| CCN1C(=O)c2ccccc2Sc2ccc(NC(=O)c3ccc(Cl)cc3)cc21 | 15.7% |
| COc1ccc2c(c1)c1c(c(=O)n(CCc3ccccc3)c(=O)n1Cc1ccc(F)cc1)n2C | 3.43% |
| CCC(=O)Nc1cccc(C(=O)OCc2cc(=O)n3nc(CC)sc3n2)c1 | -0.331% |
| Cc1ccccc1Cn1c(CN2CCC(C(=O)NCCc3ccccc3)CC2)cc2ccccc21 | 3.98% |
| CCN(CC)CCCNC(=O)c1nn(C)c2c1CS(=O)(=O)c1ccccc1-2 | 4.45% |
| COc1ccc2c(c1)c1c(c(=O)n(-c3ccc(F)c(Cl)c3)c(=O)n1Cc1ccccc1C)n2C | -4.42% |
| Cc1ccc2sc(NC(=O)c3ccc4c(c3)OCCO4)nc2c1C | 2.74% |
| COc1ccc(NC(=O)c2c(-c3ccc(C)cc3)nnc3ccccc23)c(OC)c1 | 4.86% |
